Test results taken from PubChem BioAssay AID624296 (National Center for Advancing Translational Sciences (NCATS), 2012).
The whole screen tested about 350,000 compounds, of which about 9,900 (2.8%) were called active. Inconclusive results, whose numbers are uncertain, are shown with a selection of clear calls. Calls follow the shape of the dose curve; as a rule, active = well fitted activation curve with a large enough effect; inconclusive = small, poorly fitted or top-dose-only effect; inactive = no such curve, though single readings can be large or run the other way. No potency is given beside an inconclusive call; the fits are too rough.

Experiment: A quantitative high throughput screen for small molecules that induce DNA re-replication in MCF 10a normal breast cells. Also: nearly all actives have a fitted effect of over 50% in size.
Conditions: MCF 10A DNA re-replication, Hoechst nuclear intensity, 48 h; series mostly up to 46.1 µM
Potency is read from the fitted curve at half-maximal effect; tags tell the direction and shape of the fitted curve.

Row | SMILES | Potency
1 | Cc1ccc2nc(NCc3ccccc3)c(C=NCc3ccccc3)c(=O)n2c1 | inactive
2 | Oc1ccc(/C=C/c2ccnc3ccccc23)cc1 | active: 20.6 µM
3 | CC[C@H](C)[C@@H](NC(=O)O[C@@H]1C(=O)c2cc(Br)ccc2O[C@H]1c1cccc(OC)c1)C(=O)OC | inconclusive [activator, partial curve, poor fit]
4 | CN1CCN(C(=O)C23CCC(C)(c4nc5ccccc5nc42)C3(C)C)CC1 (stereo unspecified) | inactive
5 | CCCCN(C)CCNC(=O)C1CCN(S(=O)(=O)c2cccc3nsnc23)CC1 | inactive
6 | Cc1cccc(-n2nnnc2SCc2csc(-c3ccccc3)n2)c1 | inconclusive [activator, single point]
7 | CC(C(=O)O)n1cc(C#N)c(=O)[nH]c1=O (stereo unspecified) | inactive
8 | CC(CNCC1CCCO1)COc1cccc2ccccc12 (stereo unspecified) | inactive
9 | COc1ccc(C(=O)C2CCCN(C(=O)c3noc4c3CCCC4)C2)c(C)c1 (stereo unspecified) | inconclusive [activator, single point]
10 | CCn1c(=N)n(CC(=O)c2cccc(OC)c2)c2ccccc21 | inconclusive [activator, single point]
11 | CCN(CC(=O)Nc1c(C(=O)OC)[nH]c2ccc(Cl)cc12)c1ccc2c(c1)OCO2 | inconclusive [activator, single point]
12 | COCCNC(=O)c1cnn2c(C(F)(F)F)cc(-c3ccc4c(c3)OCO4)nc12 | inconclusive [activator, partial curve, poor fit]
13 | COc1ccc2ncc(S(=O)(=O)c3ccccc3)c(N3CCC4(CC3)OCCO4)c2c1 | inconclusive [activator, single point]
14 | CC(C)(S)[C@@H](N)C(=O)O | inconclusive [activator, partial curve, poor fit]
15 | Clc1ccc(-c2cc3ccccc3[nH]2)cc1 | inactive
16 | O=c1c2c3c(sc2ncn1/N=C/c1ccc([N+](=O)[O-])o1)CCCC3 | active: 4.11 µM
17 | O=C(O)CN1C(=O)/C(=C/c2ccc(SCc3ccccc3)o2)SC1=S | inconclusive [activator, partial curve, poor fit]
18 | CCc1ccccc1N1C(=O)C2CC=CCC2C1=O (stereo unspecified) | inactive
19 | CCN1C(=O)C(O)(CC(=O)/C=C/C=C/c2ccccc2)c2ccccc21 (stereo unspecified) | inconclusive [activator, partial curve, poor fit]
20 | COc1ccccc1OC[C@H](O)CO | inconclusive [activator, full curve, poor fit]
21 | NNC(=O)c1cc(-c2ccco2)[nH]n1 | inactive
22 | N#C/C(=C/c1cn(-c2ccccc2)nc1-c1cccc(OCc2ccccc2)c1)C(=O)NCCCn1ccnc1 | active: 13 µM
23 | Cc1noc(-c2ccccc2)c1NC(=O)Nc1ccc(Cl)cc1 | inconclusive [activator, single point]
24 | Cc1ccc(OCc2nc(-c3ccccn3)no2)c(Br)c1 | inconclusive [activator, partial curve, poor fit]

Row | SMILES | Potency
25 | COc1cccc(C(=O)NNc2nc(C)cc(C)n2)c1 | inconclusive [activator, single point]
26 | Cc1cc(C)n(-c2nnc(SCC(=O)NC3CCCC3)c3ccccc23)n1 | inactive
27 | Cc1ccc(CN2CCC(c3cc(-c4cccs4)n[nH]3)CC2)cc1 | inconclusive [activator, partial curve, poor fit]
28 | O=C(Cn1nc(-c2ccccc2Cl)ccc1=O)Nc1ccccc1-c1ccccc1 | inactive
29 | Cc1nc(SCC(=O)c2ccccc2)n[nH]1 | inconclusive [activator, partial curve, poor fit]
30 | COc1cccc(CC2(CO)CCCN(CC3=Cc4cc(Cl)ccc4OC3)C2)c1 (stereo unspecified) | inconclusive [activator, single point]
31 | O=C(N/N=C/c1ccc(OCc2ccccc2)cc1)c1ccncc1 | inconclusive [activator, single point]
32 | CCc1ccc(OCC(=O)Nc2ccc(CN3CCCCC3)cc2)cc1 | inconclusive [activator, partial curve, poor fit]
33 | COc1ccccc1N(CC(=O)N/N=C/c1ccc(OCC(=O)NCc2ccco2)cc1)S(=O)(=O)c1ccc(C)cc1 | inactive
34 | CCOC(=O)c1ccc(Nc2c(CC)c(C)nc3ncnn23)cc1 | inconclusive [activator, single point]
35 | CCOc1cc(/C=C2\SC(=NC)N(C)C2=O)cc(Cl)c1OC(C)=O | inconclusive [activator, full curve, poor fit]
36 | CCN(CC)c1ccc(/C=N/N=C(c2ccccc2)c2ccccc2)c(O)c1 | inconclusive [activator, full curve, poor fit]
37 | O=C(O)CCn1c2c(c3ccccc31)CCCC2 | inactive
38 | c1ccc(-c2n[nH]c(-c3ccccn3)n2)nc1 | inactive
39 | CCOc1ccc2nc(NC(=O)c3cnc(C)cn3)sc2c1 | inconclusive [activator, full curve]
40 | O=C(CN1CCN(S(=O)(=O)c2ccccc2)CC1)NCCc1ccccc1 | inactive
41 | CC(=O)c1cc(NC(=O)c2cccc(C(F)(F)F)c2)c(=O)oc1C | inconclusive [activator, single point]
42 | CCc1cccc(NC(=O)CCc2c(C)nn(-c3ccc(N4CCOCC4)nn3)c2C)c1 | inactive
43 | COc1ccccc1/C=C/C=N/NC(=O)c1cc(-c2ccc(C)o2)[nH]n1 | inconclusive [activator, single point]
44 | Clc1ccc(Oc2nc3ccccc3n3cccc23)cc1 | inconclusive [activator, single point]
45 | O=C(Nc1ccc(Cl)cc1N1CCOCC1)C1CCCO1 (stereo unspecified) | inactive
46 | O=C1c2ccccc2NC(c2c(Cl)cccc2Cl)N1Cc1ccccc1 (stereo unspecified) | inconclusive [activator, partial curve, poor fit]
47 | COc1ccc(C(=O)C(CN2CCOCC2)c2ccccc2)cc1F (stereo unspecified) | active: 11.6 µM
48 | CC1CC(C)CN(CC(=O)NC(c2ccccc2)c2ccccc2)C1 (stereo unspecified) | inconclusive [activator, partial curve, poor fit]

Row | SMILES | Potency
49 | CC(NC(=O)Nc1cccc(Cl)c1)C(c1cccs1)N1CCCC1 (stereo unspecified) | inactive
50 | COc1cc(C(=O)Nc2nc(-c3ccc(F)cc3)cs2)ccc1OCC(=O)N1CCOCC1 | active: 23.1 µM
51 | Nn1c(SCc2ccc(C(=O)O)cc2)nnc1-c1ccc(Cl)cc1Cl | inconclusive [activator, single point]
52 | COC(=O)c1cc(NC(=O)N2c3ccccc3Sc3ccccc32)cc(C(=O)OC)c1 | inactive
53 | Cc1nnc(SCC(=O)N/N=C/c2cn(-c3ccccc3)nc2-c2ccccc2)n1-c1ccccc1 | inconclusive [activator, partial curve, poor fit]
54 | CN(C)CCNc1c2c(c(C#N)c3nc4ccccc4n13)CCCC2 | inconclusive [activator, partial curve, poor fit]
55 | CCCN=Cc1c(CCC)[nH]n(-c2nc3ccccc3s2)c1=O | inconclusive [activator, full curve, poor fit]
56 | O=C(COc1ccc(Cl)cc1)NCCSCc1ccccc1Cl | inconclusive [activator, partial curve, poor fit]
57 | CCc1cc2c(CN3CCN(C)CC3)cc(=O)oc2cc1O | inconclusive [activator, single point]
58 | CN(C)CCCOC1C(C(O)CO)OC2OC(C)(C)O[C@@H]21 (stereo partly specified) | inconclusive [activator, partial curve]
59 | N/C(=N\N=C/c1ccc(Br)cc1)N/N=C\c1ccc(Br)cc1 | inactive
60 | O=S(=O)(c1ccc2nc(N3CCN(c4ccc(F)cc4)CC3)ccc2c1)N1CCCCC1 | inconclusive [activator, partial curve, poor fit]
61 | CCOc1ccc(C(C(=O)NCCC(C)C)N(CCO)C(=O)c2snc(C(N)=O)c2N)cc1 (stereo unspecified) | inactive
62 | CCOC(=O)N1CCC(NS(=O)(=O)c2ccc(NC(C)=O)c(Cl)c2)CC1 | inconclusive [activator, partial curve]
63 | Cc1cc(/C=C(/C#N)C(=O)O)c(C)n1CCC(C)C | inconclusive [activator, full curve]
64 | COc1ccc(CCNc2cc(C)nc3c(-c4ccc(Cl)cc4)c(C)nn23)cc1OC | inconclusive [activator, single point]
65 | CC(=O)[C@@H]1[C@@H](C(=O)c2ccc(F)cc2)[C@]2(C(=O)Nc3ccccc32)[C@H]2C=Cc3cc(F)ccc3N12 | active: 20.6 µM
66 | Cc1cccc(C)c1NC(=S)N/N=C/c1ccc(C(=O)O)cc1 | inactive
67 | COc1ccc(C(=O)N=c2sc3c(C)ccc(OC)c3n2C)cc1 | inactive
68 | Oc1cc(-c2ccc(N3CCCCC3)nc2)cc2cccnc12 | inconclusive [activator, single point]
69 | CCC(c1nnc(SCC(=O)Nc2ccc(C(N)=O)cc2)n1Cc1ccccc1)N(C)C (stereo unspecified) | inactive
70 | O=C1NC[C@H](c2ccccc2)N(CCc2cc(C(F)(F)F)cc(C(F)(F)F)c2)C1=O | inconclusive [activator, partial curve, poor fit]
71 | O=C(NNC(=S)Nc1ccccc1Cl)c1ccccc1Cl | inconclusive [activator, partial curve, poor fit]
